# Results from PMC6919601, “Identification of Plasmodium dipeptidyl aminopeptidase allosteric inhibitors by high throughput screening” (PLoS ONE, 2019).
# Among all 110,000 compounds or so, about 230 (0.21%) showed an effect of 50% or more. The list shows a part of the results.
# Target: DPAP1 (Plasmodium falciparum, UniProt Q8IIJ9)
# Test: primary screen, percent inhibition; read by cleavage of a fluorogenic dipeptide substrate; higher = more effect of the substance
# Set-up: species or system P. falciparum D10 trophozoite lysates; single well
# 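Note: 30 min substrate incubation versus DMSO and 10 µM JCP410 controls.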
# DPAP1, sequence (Q8IIJ9 whole entry, looked up): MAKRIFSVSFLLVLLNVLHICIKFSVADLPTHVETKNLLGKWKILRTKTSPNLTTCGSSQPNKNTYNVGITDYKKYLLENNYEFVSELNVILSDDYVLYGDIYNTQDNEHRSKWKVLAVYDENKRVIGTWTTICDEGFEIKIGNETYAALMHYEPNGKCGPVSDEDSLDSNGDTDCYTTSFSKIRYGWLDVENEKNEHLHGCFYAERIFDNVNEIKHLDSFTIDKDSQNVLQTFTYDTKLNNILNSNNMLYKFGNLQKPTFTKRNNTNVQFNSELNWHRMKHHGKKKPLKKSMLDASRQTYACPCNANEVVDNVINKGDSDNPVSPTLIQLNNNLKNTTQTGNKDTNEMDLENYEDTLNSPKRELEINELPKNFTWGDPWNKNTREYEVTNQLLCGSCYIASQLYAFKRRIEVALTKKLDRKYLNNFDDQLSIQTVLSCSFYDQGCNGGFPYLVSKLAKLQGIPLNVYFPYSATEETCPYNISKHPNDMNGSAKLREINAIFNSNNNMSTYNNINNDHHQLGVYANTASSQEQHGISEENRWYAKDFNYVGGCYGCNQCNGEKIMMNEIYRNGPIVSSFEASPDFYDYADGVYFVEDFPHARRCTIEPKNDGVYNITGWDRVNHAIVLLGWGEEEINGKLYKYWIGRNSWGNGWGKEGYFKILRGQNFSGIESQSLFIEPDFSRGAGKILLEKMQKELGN
row,Structure (SMILES),% Inhibition @ 10 uM [%]
1,CCC(C)n1ncn(-c2ccc(N3CCN(c4ccc(OC)cc4)CC3)cc2)c1=O (stereo not shown),-1.37
2,O=C1C(c2ccc(F)cc2)N(CCc2ccccc2Cl)C(=O)CN1C1CCCCC1 (stereo not shown),1.27
3,CCCn1c2c(c(O)c(C(=O)Nc3cc(C)ccn3)c1=O)CCCC2,-0.458
4,O=C(c1cc2ccc3cccnc3c2[nH]1)N1CCc2ccccc2C1,-2.9
5,COc1ccc(Cl)cc1NC(=O)CN(Cc1ccc(C)cc1)S(=O)(=O)c1ccccc1,0.291
6,Cc1ccc2[nH]c3c(c2c1)CCC(CN(C)C)C3=O (stereo not shown),-0.693
7,COC(=O)C1=C(C)NC(=O)/C1=C\c1cccc(OC)c1,-2.2
8,Cc1ccc(C2=NC3(CCN(C(=O)c4ccc(C(C)(C)C)cc4)CC3)NC2=O)cc1C,5.85
9,CCN1CCN(C(=O)Cn2cc(S(=O)(=O)NC)c(S(=O)(=O)NC)c2)CC1,-1.59
10,Cc1ccc2[nH]c(C)c(CCN)c2c1,-7.42
11,COc1ccccc1C(=O)Nc1cc(C)cc(C)c1,44
12,COC(=O)CCNS(=O)(=O)c1ccc([N+](=O)[O-])cc1,3.25
13,COc1ccc(C=C2C(=O)NC(=S)NC2=O)cc1OC,-6.22
14,Cc1oc(-c2ccccc2F)nc1CSCC(=O)NCCN1CCCC1,2.16
15,CCOC(=O)c1c(NC(=O)C(C)(C)C)sc2c1CCCC2=O,2.78
16,COc1cc2c(cc1OC)CN(C1CN3CCC1CC3)CC2 (stereo not shown),0.217
17,Cc1ccc(CNC(=O)c2ccc3c(c2)ncn3C2CCCC2)cc1,-3.12
18,CC(=O)NS(=O)(=O)c1ccc(NC(=O)CCC2CCCC2)cc1,2.08
19,CC(C)NC(=O)c1cc([N+](=O)[O-])ccc1Cl,0.467
20,CCOc1ccccc1-c1cc(C(=O)OC)c2ccccc2n1,-1.1
21,CCOC(=O)N1CCN(S(=O)(=O)N2CCCC(C(=O)NCc3ccc4c(c3)OCO4)C2)CC1 (stereo not shown),-6.88
22,O=C(C1CCN(S(=O)(=O)c2c[nH]cn2)CC1)N1CCn2c1nc1ccccc12,-0.719
23,O=C(CCSc1ccc(Cl)cc1)Nc1ccc(S(=O)(=O)N2CCCC2)cc1,3.8
24,N#CCNC(=O)[C@H](CSCc1ccc(Cl)cc1)NC(=O)c1ccccc1,-3.49
25,O=c1c2c(c1=O)C1(SCCCS1)c1ccccc1O2,0.746

row,Structure (SMILES),% Inhibition @ 10 uM [%]
1,CCC(C)NS(=O)(=O)c1ccc(OCC(=O)Nc2ccc3c(c2)OCCO3)cc1 (stereo not shown),1.17
2,Cc1ccc(N2C(=O)CC(N3CCc4ccccc4C3)C2=O)cc1C (stereo not shown),3.91
3,CN(CCCNC(=O)Cn1nc(Cc2cccnc2)c2ccccc2c1=O)Cc1ccccc1,-3.14
4,FC(F)Oc1ccccc1C1C=C(c2cccnc2)Nc2ncnn21 (stereo not shown),-5.05
5,CCCN1CCC(NCc2ccc(Cl)cc2)CC1,-1.5
6,COc1ccc(/C=C2\SC(=O)N(CC(=O)Nc3cccnc3)C2=O)cc1OC,-8.05
7,Cc1cccc(OCC(=O)N2CCN(Cc3ccccc3Br)CC2)c1,1.84
8,O=C(NCC1CCCO1)c1[nH]c2ccccc2c1Sc1ccc(Cl)cc1 (stereo not shown),-6.82
9,COc1ccc(-c2cn3c4ccccc4n(C)c3n2)cc1,0.0538
10,O=C1c2ccccc2NC(c2cccc([N+](=O)[O-])c2)N1c1ccc(Br)cc1 (stereo not shown),-3.35
11,Cc1ccc(NC(=O)c2cc(C(F)(F)F)nn2C)c(C)c1,-4.21
12,Cc1ccc(C(C)C)cc1OP1(=O)COc2ccccc2OC1,-1.11
13,CCc1nc2cccnc2n1-c1ccc(CC(=O)N2CCN(C)CC2)cc1,-5.54
14,COc1ccc(-c2onc(C)c2C)cc1S(=O)(=O)N(C)CC1COc2ccccc2O1 (stereo not shown),1.39
15,O=C(N[C@@H](Cc1ccc2ccccc2c1)C(=O)N[C@@H](CCc1ccccc1)C(=O)C[N+](=O)[O-])OCc1ccccc1,3.66
16,COc1ccccc1-c1c(C)nn2c(NCCN3CCCCCC3)cc(C)nc12,-3.7
17,CCCS(=O)(=O)N1CCCC(C(=O)NCCCN2CCCCC2CC)C1 (stereo not shown),-3.58
18,COc1cc(-c2nnc3sc(/C=C/c4ccccc4)nn23)cc(OC)c1OC,59.6
19,CCOC(=O)c1c(S(=O)(=O)N(Cc2ccc(F)cc2)Cc2cccnc2)c(C)n(C)c1C,-2.83
20,NC(=O)C1CCCN(Cc2ccc(F)cc2)C1 (stereo not shown),-0.603
21,O=C(Cn1nc(C(F)(F)F)cc1C1CC1)Nc1ccccc1Cl,1.59
22,CCOC(=O)N1CCC(N2C(=O)c3ccc(C(=O)O)cc3C2=O)CC1,4.01
23,Cc1ccc(C(=O)N/C(=C/c2ccco2)C(=O)NC(C)C)cc1,-2.07
24,OCCN1CCN(C2CCCCCCC2)CC1,-3.6
